Assay results as given in PubChem BioAssay AID488969 (Vanderbilt High Throughput Screening Facility, 2010).
The full ranking holds about 110,000 compounds; the median of “z-score” is about -0.1, and the highest 2% start at about 2. This is one part of the list.

The compounds below were run against Metabotropic glutamate receptor 8 (Rattus norvegicus) (UniProt P70579) (assay: rat mGluR8 modulators via GIRK flux, primary screen, cell-based, thallium flux, HTS (AID 488969)). Settings: HEK293 rat mGluR8, GIRK (G protein-gated inwardly rectifying potassium channel) thallium flux, FluoZin2; at 10 µM; stronger effect = higher value; submaximal glutamate (EC20) added with thallium.
Sequence of UniProt P70579 (P70579 whole entry, looked up): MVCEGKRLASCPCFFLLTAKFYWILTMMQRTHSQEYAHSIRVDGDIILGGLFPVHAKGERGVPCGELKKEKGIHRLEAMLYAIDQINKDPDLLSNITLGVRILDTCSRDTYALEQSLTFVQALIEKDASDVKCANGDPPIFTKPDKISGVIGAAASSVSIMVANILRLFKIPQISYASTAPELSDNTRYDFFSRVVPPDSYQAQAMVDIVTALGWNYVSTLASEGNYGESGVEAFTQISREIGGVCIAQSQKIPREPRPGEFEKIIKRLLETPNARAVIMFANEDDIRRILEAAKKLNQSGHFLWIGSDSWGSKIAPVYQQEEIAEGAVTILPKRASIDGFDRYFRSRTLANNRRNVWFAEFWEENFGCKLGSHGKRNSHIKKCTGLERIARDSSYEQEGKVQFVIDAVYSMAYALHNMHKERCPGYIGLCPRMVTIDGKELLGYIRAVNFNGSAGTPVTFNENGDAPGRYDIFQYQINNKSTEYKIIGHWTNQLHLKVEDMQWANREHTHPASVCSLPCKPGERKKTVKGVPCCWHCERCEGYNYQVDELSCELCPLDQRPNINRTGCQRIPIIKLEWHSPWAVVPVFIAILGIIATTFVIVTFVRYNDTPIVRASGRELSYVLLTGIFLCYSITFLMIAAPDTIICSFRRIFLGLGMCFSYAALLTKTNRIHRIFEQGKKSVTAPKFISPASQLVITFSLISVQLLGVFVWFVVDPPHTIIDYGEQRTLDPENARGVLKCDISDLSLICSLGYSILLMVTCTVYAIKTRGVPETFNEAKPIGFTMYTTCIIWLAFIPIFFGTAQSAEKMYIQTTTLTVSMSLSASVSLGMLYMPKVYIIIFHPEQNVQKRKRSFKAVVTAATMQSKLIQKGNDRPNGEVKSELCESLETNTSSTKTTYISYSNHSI
In the case of CC(C)Oc1ccc(Cc2c(O)nc(NCCCN(C)C)[nH]c2=O)cc1, the z-score is reported as 0.195.
In the case of Cc1ccc(Cl)cc1NC(=O)COC(=O)CC1CC2CCC1C2 (stereo not drawn), the z-score is reported as -0.0633.
For COC(=O)c1cccc(NS(=O)(=O)c2ccc(OC)cc2)c1C, the z-score was -0.504.
C=CCOc1c(Br)cc(C2C3=C(CCCC3=O)N(C)C3=C2C(=O)CCC3)cc1OCC was tested, and the z-score was -0.728.
With Cc1cc(C)n(CC(=O)N/N=C/c2cc([N+](=O)[O-])ccc2O)n1 the z-score was -0.556.
With CCSc1ncccc1-c1nc2ccccc2[nH]1 the z-score was 1.12.
In the case of O=C(CN1C(=O)c2ccccc2C1=O)Nc1ccc(-c2nc3ccccc3o2)cc1, the z-score is reported as 0.616.
Compound CC1Cc2ccccc2N1C(=O)COC(=O)c1c2c(nc3ccccc13)CCCCC2 (stereo not drawn) has a z-score of -0.164.
Compound COC(=O)CCC(=O)Nc1cccc2ccccc12 has a z-score of 0.0119.
CCOC(=O)CSc1nncc2ccc(OC)c(OC)c12 gave a z-score of 0.0626.
O=C(CCCOc1ccccc1)Nc1nncs1 was tested, and the z-score was -0.122.
COc1cccc(CNC(=O)C(=O)NCCc2ccc(OC)c(OC)c2)c1 was tested, and the z-score was -0.206.
For CS(=O)(=O)N(CC(=O)NCc1ccco1)c1ccc2c(c1)OCO2, the z-score was 0.526.
Compound Cc1cccc(-n2c(SCC(N)=O)nc3c(c2=O)C2(CCCC2)Cc2ccccc2-3)c1 has a z-score of -0.351.
CCN(CC)c1ccc(/C=N/OCC(=O)N2CCCc3ccccc32)cc1 was tested, and the z-score was -0.492.
For CC(=O)Nc1nonc1-c1nc2ccccc2n1N(C(C)=O)C(C)=O, the z-score was -2.35.
Compound Clc1c(CSc2nc3ccccc3o2)nc2sccn12 has a z-score of 1.14.
With Cc1[nH]c2ccccc2c1C(c1ccccn1)N1CCC(C)CC1 (stereo not drawn) the z-score was 0.225.
In the case of CCNS(=O)(=O)c1ccc(NS(C)(=O)=O)cc1, the z-score is reported as 0.152.
Work on Cc1ccccc1NC(=O)N(C(C)C)C(C)C yielded a z-score of 0.0628.
For O=C(Nc1cccc2ccccc12)/C(=C/c1cccc([N+](=O)[O-])c1)NC(=O)c1cccs1, the z-score was 0.171.
With O=C(NC12CC3CC(CC(C3)C1)C2)c1ccc(-c2cccc(Cl)c2)o1 the z-score was -0.167.
In the case of COc1ccc(C(=O)/C=C/c2ccccc2F)c(OC(=O)c2ccc([N+](=O)[O-])cc2)c1, the z-score is reported as 0.0301.
With O=C1NCCCC2c3c(cc(Br)c(O)c3Br)OC12N1CCOCC1 (stereo not drawn) the z-score was -0.385.
c1ccc(COc2ccc(-c3csnn3)cc2)cc1 showed a z-score of -0.293.
For COc1ccc(S(=O)(=O)NCc2ccc(C(=O)O)cc2)cc1, the z-score was -0.0701.
With CC1=C(C(=O)OC(C)C)C(c2cncc(-c3ccc(F)cc3)c2)C(C#N)=C(N)O1 (stereo not drawn) the z-score was -0.367.
For CN=c1scc(C)n1/N=C/c1ccc(O)cc1, the z-score was 0.233.
For CN(Cc1ccccc1)S(=O)(=O)c1ccc(Cl)c(C(=O)NCc2ccc3c(c2)OCO3)c1, the z-score was -0.224.
O=C(Nc1cccnc1)c1cnn2c(C(F)F)cc(C3CC3)nc12 showed a z-score of -0.0902.
Compound Cc1ccc(NC2c3ncccc3C(=O)N2C2CCCCC2)cc1C (stereo not drawn) has a z-score of -0.606.
CCOCCn1c(N2CCN(c3ccc(OC)cc3)CC2)nc2c1c(=O)[nH]c(=O)n2C was tested, and the z-score was -0.282.
Cc1cccc(N2CCN(S(=O)(=O)c3ccc4c(c3)n(C)c(=O)c(=O)n4C)CC2C)c1 (stereo not drawn) gave a z-score of -0.314.
For CN1CCc2c(sc3c2C(=O)NC(c2ccccn2)N3)C1 (stereo not drawn), the z-score was -0.0508.
With COc1ccc(/C=C/C(=O)OCC(=O)Nc2ccc(C)cc2)cc1S(=O)(=O)N1CCOCC1 the z-score was 0.875.
COc1ccc(OCC(=O)N2CCN(S(=O)(=O)c3ccc(Cl)cc3)CC2)cc1 gave a z-score of 0.211.
C=CCn1c(SCc2c(C)noc2C)nc2sc3c(c2c1=O)CCC(C)C3 (stereo not drawn) showed a z-score of 2.65.
COCCn1nnnc1CN(CCc1ccc(OC)c(OC)c1)Cc1cc2ccc(C)cc2[nH]c1=O gave a z-score of -0.0984.
Compound COC(=O)c1cc(=O)n2c(-c3ccc(OC)cc3)csc2n1 has a z-score of 0.0497.
For CC1=Nc2ccccc2/C1=C/c1sc(=N)n(-c2nccs2)c1O, the z-score was 0.985.
Compound Cc1ccc(C(=O)C(C(=O)/C=C/c2ccccc2)=C2SCCCS2)cc1 has a z-score of 0.0319.
In the case of Cc1ccc(S(=O)(=O)N2CCN(C(C)C(=O)N3CCCc4ccccc43)CC2)cc1 (stereo not drawn), the z-score is reported as -0.161.
Work on CC(C)(C)NC(=O)CSc1nccn1Cc1ccccc1 yielded a z-score of 0.488.
CCC(C)NC(=O)C1CCN(c2nc(C)cc(C)n2)CC1 (stereo not drawn) was tested, and the z-score was 0.413.
CCN1CCN(c2ncc3c(n2)CC(c2cc(OC)c(OC)c(OC)c2)CC3=O)CC1 (stereo not drawn) was tested, and the z-score was -0.0538.
In the case of CCCCCn1c(NC(=O)c2ccco2)c(S(=O)(=O)c2ccc(C)cc2)c2nc3ccccc3nc21, the z-score is reported as 0.0549.
CC(C)(C)n1nc2c(c1NC(=O)COc1ccc3ccccc3c1)CS(=O)(=O)C2 showed a z-score of -0.24.
C/C(N)=C(/C#N)C(=O)CSc1nc2cc(Cl)ccc2c(=O)n1-c1ccc(C)cc1 gave a z-score of 2.69.
Clc1ccc(OCCOCCOc2cccc3cccnc23)c(Br)c1 was tested, and the z-score was 0.0446.
With O=C(CN1C(=O)c2ccccc2C1=O)Nc1cccc2cccnc12 the z-score was -0.275.
CCc1nnc(NC(=O)CSc2ncnc3c2cnn3-c2ccc(OC)cc2)s1 gave a z-score of 0.126.
Cc1ccc(S(=O)(=O)N2CCN(C(=O)N(C)C)CC2)cc1C showed a z-score of -0.0584.
For c1ccc(CC2CCN(Cc3nc(-c4ccccc4)no3)CC2)cc1, the z-score was 0.83.
Work on CCOC(=O)CSC1=Nc2ccccc2C2=NC(CC(=O)NCc3ccc4c(c3)OCO4)C(=O)N12 (stereo not drawn) yielded a z-score of -0.235.
Compound COc1ccc(Cn2nnnc2C(c2ccccc2Cl)N2CCN(C3CCCC3)CC2)cc1 (stereo not drawn) has a z-score of 1.79.
COc1cccc(OC)c1C(=O)NC(C)c1ccccc1 (stereo not drawn) was tested, and the z-score was -0.155.
COc1ccccc1OCc1nc2ccccc2[nH]1 gave a z-score of -0.305.
CC(C)C(c1nnnn1Cc1ccco1)N1CCN(C2CCCC2)CC1 (stereo not drawn) gave a z-score of -0.255.
For C/C(NC1CCCC1)=C(/C#N)C(N)=O, the z-score was -0.0372.
Compound COc1ccc(NC(=S)N/N=C2\CC(C)(C)Oc3ccc(OC)cc32)cc1 has a z-score of -0.239.
Work on Cc1nc2ccc(Br)cn2c(=O)c1Cl yielded a z-score of 0.176.
Compound CC(/C=N/n1c(-c2cc(C)[nH]n2)n[nH]c1=S)=C\c1ccccc1 has a z-score of -0.302.
Work on O=C(c1ccco1)N(Cc1ccc([N+](=O)[O-])cc1)c1ccc(Br)cc1 yielded a z-score of -0.255.
Compound CC1=Nn2c(nc(-c3ccccc3)c2-c2ccccc2)NC(=O)C1Br (stereo not drawn) has a z-score of 0.0626.
In the case of COc1ccc2nc(/N=C(\N)NC(=O)N3c4ccccc4Sc4ccccc43)nc(C)c2c1, the z-score is reported as -0.187.
O=S1(=O)CCC(NS(=O)(=O)c2cccc3cccnc23)C1 (stereo not drawn) showed a z-score of 0.203.
NS(=O)(=O)c1ccc(N/C=C\C(=O)c2cccc3ccccc23)cc1 was tested, and the z-score was -0.217.
COc1ccc(C2=NN(C(=O)CSc3cn(C)c4ccccc34)C(c3ccc(OC)cc3)C2)cc1 (stereo not drawn) showed a z-score of -0.564.
